Source: PubChem BioAssay AID686979 (National Center for Advancing Translational Sciences (NCATS), 2013)
In all, about 420,000 compounds went through this assay and about 50,000 (12%) were called active. The shares of active, inactive and inconclusive entries below differ from those in the screen. The call rests on the fitted dose curve; in most records, active means well fitted inhibition curve with a large enough effect; inconclusive means small, poorly fitted or top-dose-only effect; inactive means flat fitted curve, though single readings scatter. Potencies of inconclusive entries are left out as doubtful fits.

assay: qHTS for Inhibitors of human tyrosyl-DNA phosphodiesterase 1 (TDP1): qHTS in cells in presence of CPT; conditions: chicken DT40 Tdp1-/-;hTDP1 cells + 20 nM CPT, ATP luminescence, 48 h; activity change, negative = growth inhibition: at 46.2 µM (top of the series) unless noted; further: nearly all actives have a fitted effect of over 55% in size
Outline: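 Cell growth measured by CellTiter-Glo luminescence after a minimum 48 h, 37 C compound exposure with 20 nM CPT in Tdp1-knockout DT40 cells stably expressing hTDP1, seeded 400/well; qHTS titration format.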
On the % scale 0 is the no-effect control and ±100 the full control effect; potency means the concentration at half of the fitted maximal effect; tags describe the fitted curve by direction and shape.

SMILES	Potency	activity change, negative = growth inhibition
CCCNC(=O)Cn1c(=O)cc(C)c2c(C)nn(-c3cccc(F)c3)c21	inactive	–
CCOC(=O)c1cc2c(ccn2C)n1Cc1cc(C)ccc1C	inconclusive [inhibitor, partial curve, poor fit]	–
CN(C)c1ccc(C=C(c2nnnn2-c2ccccc2)c2nnnn2-c2ccccc2)cc1	active: 20.6 µM	–
COc1ccc(NC(=O)CN2CCc3ccccc3C2)cc1S(=O)(=O)N1CCOCC1	inactive	–
O=C(NC(=S)NCC1CCCO1)c1ccccc1F (stereo not given)	inactive	–
CSc1ccc(CNc2nc3ccccc3n3cnnc23)cc1	inconclusive [inhibitor, full curve, poor fit]	–
Cc1c(C(=O)N2CCCCCC2(C)C(=O)NCC(C)C)oc2ccccc12 (stereo not given)	inconclusive [inhibitor, single point]	–
Cc1cc(N2CCN(c3ccccc3)CC2)nc(-c2ccccc2)n1	active: 23.1 µM	–
CC(=O)n1nc2nc(C)cc(C)c2c1N	inactive	–
CCCCN(C)c1c(C)nc2ccc(C(=O)N(CC)CCN(C)C)cn12	inactive	–
O=C(CCNS(=O)(=O)c1ccc(Br)cc1)NC1CCN(Cc2ccccc2)CC1	inconclusive [inhibitor, partial curve]	–
COc1ccc(C(C)(O)c2nc(-c3ccc(Cl)cc3)cs2)cc1 (stereo not given)	inconclusive [inhibitor, single point]	–
CCOc1ccc(C(CCc2ccccc2)NC(=O)c2ccccc2F)cc1OCC (stereo not given)	active: 35.5 µM	–
COc1ccc(NC(=O)c2oc3ccccc3c2NC(=O)c2cc(OC)c(OC)c(OC)c2)cc1	active: 20.6 µM	–
Cc1cc(CSc2ccccc2)ccc1NC(=O)c1ccc(Cl)c([N+](=O)[O-])c1	inconclusive [inhibitor, single point]	–
COc1ccc(NC(=O)c2c(C)oc3ccc(O)c(CN4CCCC(C)C4)c23)cc1 (stereo not given)	active: 25.9 µM	–
CC(=O)[C@@H]1[C@@H]2C(=O)N(Cc3ccccc3)C(=O)[C@@H]2C2c3ccccc3C=CN21 (stereo not given in full)	inconclusive [inhibitor, partial curve]	–
O=C(Nc1ccnn1C1CCN(C2CCC2)CC1)c1ccccc1	inactive	–
CCCCn1nnnc1C(c1ccccc1)N1CCN(c2ncccn2)CC1 (stereo not given)	inconclusive [inhibitor, single point]	–
COc1ccccc1C1SCCN1S(=O)(=O)c1ccccc1 (stereo not given)	inconclusive [inhibitor, single point]	–
COc1ccc(CCNC(=O)Cn2c(-c3cccs3)cc3cc(F)ccc32)cc1OC	active: 7.31 µM	–
CC(=O)Nc1ccc(S(=O)(=O)NCCSc2ccccn2)cc1	inconclusive [inhibitor, single point]	–
Cc1ccccc1-c1nn2c(=O)cc(CN3CCN(C(=O)c4ccccc4Br)CC3)nc2s1	inactive	–
COc1ccccc1CNC(=O)[C@H](C)NC(=O)C1CCN(C(=O)[C@@H](N)CCSC)CC1	inactive	–
Cc1ccc(-c2nc(NCCN(C)C)c3ccccc3n2)cc1	inactive	–

SMILES	Potency	activity change, negative = growth inhibition
O=C(O)Cn1nc(-c2ccc(Cl)cc2)ccc1=O	inactive	–
CS(=O)(=O)N(CC(=O)O)c1cc(C(F)(F)F)ccc1Cl	inactive	–
COc1ccccc1-c1cnc(C(O)c2ccc(F)c(F)c2)[nH]1 (stereo not given)	inconclusive [inhibitor, single point]	–
Cc1cccc(Oc2nc3c(c(=O)n(C)c(=O)n3C)n2C)c1C	inactive	–
Cc1ccccc1CN(C)C(=O)c1ccc2ccccc2n1	inconclusive [inhibitor, single point]	–
CC(CNc1nc2ccccc2n2cnnc12)c1ccccc1 (stereo not given)	–	inconclusive: -33.2% [inhibitor]
Cc1noc(C)c1COc1cccc(C(=O)N(C)Cc2cccs2)c1	inactive	–
NC(=O)c1cc2c3ccccc3ccn2c1-c1ccccc1	active: 0.184 µM	–
COC(=O)C[C@@H]1C[C@H]2c3cc(N(C)C)ccc3O[C@H]2[C@H](CO)O1	inactive	–
O=C(/C(=C/O)N=Nc1ccccc1Cl)c1ccccc1	inconclusive [inhibitor, single point]	–
CCOC(=O)CNC(=O)CCc1nnc2ccc(N3CCC(C)CC3)nn12	active: 23.1 µM	–
Oc1c(C(c2ccc(Cl)cc2)N2CCOCC2)sc2nc(-c3ccco3)nn12 (stereo not given)	inactive	–
CCOC(=O)N1CCC(N2Cc3cccc(C(=O)Nc4cc(F)ccc4F)c3C2=O)CC1	–	inconclusive: -37.9% [inhibitor]
COc1ccc(NC(=O)CCSc2ccc(C)cc2)cc1	inconclusive [inhibitor, single point]	–
COc1cc(CNC(C)c2ccccc2)cc(Cl)c1OCC(=O)Nc1ccccc1 (stereo not given)	active: 9.2 µM	–
Cc1ccc(C(=O)N/N=C/c2ccc(OC(=O)c3ccccc3Cl)cc2)cn1	inconclusive [inhibitor, single point]	–
COc1cc(NC(=O)COc2ccc(Cl)cc2)ccc1NC(=O)C(C)C	inconclusive [inhibitor, single point]	–
O=C(NCc1ccccc1)c1ccc(-c2ccc(F)c(F)c2)c2ccoc12	inconclusive [inhibitor, single point]	–
Nc1nonc1C(=O)NCCNCc1cc(Br)ccc1OCc1ccccc1F	active: 20.6 µM	–
COc1cnc(-c2ccccn2)nc1Oc1ccc(Cl)cc1	active: 1.64 µM	–
COc1cccc([C@H]2Nc3ccc(S(=O)(=O)Nc4cc(C)ccc4C)cc3[C@H]3C=CC[C@H]32)c1	active: 3.66 µM	–
CCOC(=O)C1CCCN(C(=O)c2cccc(S(=O)(=O)NCc3ccccc3)c2)C1 (stereo not given)	inconclusive [inhibitor, single point]	–
COCCC(=O)N1CCC(Oc2ccc(C(=O)N(C)CCCC3CCCC3)cc2)CC1	inconclusive [inhibitor, single point]	–
Cc1cc(C)cc(NC2=C(N)C(=O)c3ccccc3C2=O)c1	inconclusive [inhibitor, single point]	–
C=C1C[C@H]2[C@@H]3CCc4cc(OC)ccc4[C@H]3CC[C@]12C	inactive	–
